Patent publication US20180015075A1, “METHODS AND COMPOSITIONS FOR TREATMENT OF VENOUS MALFORMATION” (Children's Hospital Medical Center, priority 2016, published 2018)

Tests used:
HUVEC (non-transfected) = assay: cells; conditions: Homo sapiens, read-out: Average proliferation Inhibition rate (%) HUVEC
HUVEC-TIE2-L914F [1] = assay: cells; conditions: Homo sapiens; for inhibition at 20 µM: read-out: Average proliferation Inhibition rate (%) L914F
HUVEC-TIE2-WT [2] = assay: cells; conditions: Homo sapiens; for inhibition at 20 µM: read-out: Average proliferation Inhibition rate (%) WT; for IC50: read-out: IC50 WT
HUVEC-TIE2-WT [3] = test system: HUVEC-TIE2-WT
HUVEC-TIE2-L914F [4] = test system: HUVEC-TIE2-L914F
HUVEC-TIE2-L914F [5] = assay: Apoptosis analysis (Annexin V flow cytometry); format: cell-based, human
[6] = test system: TIE2, c-ABL, AKT, PLCγ1, ERK phosphorylation in HUVEC-TIE2-L914F; assay: Immunoblotting (Western blot) of treated cells; format: cell-based, human
HUVEC-TIE2-L914F [7] = assay: Cell cycle analysis; format: cell-based, human; conditions: 100 nM Ponatinib, 10 nM rapamycin or combination, 48 hours; DMSO control 56.29±4.06%

Question: Which results are given for `Cn1c(CCCC(=O)O)nc2cc(N(CCCl)CCCl)ccc21` [Bendamustine hydrochloride]?
Answer: inhibition at 20 µM (HUVEC (non-transfected)): 3.19%; inhibition at 20 µM (HUVEC-TIE2-L914F [1]): 2.12%; inhibition at 20 µM (HUVEC-TIE2-WT [2]): -0.61%

Question: For `O=C1[O][Pt]2([NH][C@@H]3CCCC[C@H]3[NH]2)[O]C1=O` [Oxaliplatin], which “Average proliferation Inhibition rate (%) WT” value (HUVEC-TIE2-WT [3]; 20 µM) is on record?
Answer: Its value is 13.52%.

Question: And the “Average proliferation Inhibition rate (%) L914F” value (HUVEC-TIE2-L914F [4]; 20 µM)?
Answer: Its value is 39.55%.

Question: How did the cell apoptosis (HUVEC-TIE2-L914F [5]) turn out when `Cc1ccc(C(=O)Nc2ccc(CN3CCN(C)CC3)c(C(F)(F)F)c2)cc1C#Cc1cnc2cccnn12` [Ponatinib, 3-(2-imidazo[1,2-b]pyridazin-3-ylethynyl)-4-methyl-N-[4-[(4-methyl-1-piperazinyl)methyl]-3-(trifluoromethyl)phenyl]-benzamide] was run?
Answer: The cell apoptosis was 25.43±4.67%.

Question: What about the “AKT activity (Ser437 and Thr308)” value [6] of the same molecule?
Answer: Its value is “inhibited AKT activity”.

Question: And the “Activity of PLCγ1” value [6]?
Answer: The value was “completely inhibited”.

Question: And the “phosphorylation of TIE2 and ABL” value [6]?
Answer: The value was “decreased phosphorylation of TIE2 and ABL”.

Question: And the “phosphorylation of TIE2 and c-ABL” value ([6]; 500 nM Ponatinib for 1 hour)?
Answer: The value was “diminished phosphorylation of both TIE2 and c-ABL”.

Question: What about the inhibition at 20 µM (HUVEC-TIE2-L914F [1]) of the same molecule?
Answer: The inhibition at 20 µM was 75.5%.

Question: What about the IC50 (HUVEC-TIE2-L914F [1]; read-out: IC50 L914F) of the same molecule?
Answer: Its IC50 is 420 ± 30 nM.

Question: And the inhibition at 20 µM (HUVEC-TIE2-WT [2])?
Answer: Its inhibition at 20 µM is 50.8%.

Question: What about the IC50 (HUVEC-TIE2-WT [2]) of the same molecule?
Answer: The IC50 was 890 ± 240 nM.

Question: With `CNNCc1ccc(C(=O)NC(C)C)cc1.Cl` [Procarbazine hxdrochloride] as the molecule, how does the “Average proliferation Inhibition rate (%) WT” value (HUVEC-TIE2-WT [3]; 20 uM) read?
Answer: Its value is −3.53%.

Question: What about the “Average proliferation Inhibition rate (%) L914F” value (HUVEC-TIE2-L914F [4]; 20 uM) of the same molecule?
Answer: The value was 6.02%.

Question: Which results are given for `CO[C@H]1C[C@@H]2CC[C@@H](C)[C@@](O)(O2)C(=O)C(=O)N2CCCC[C@H]2C(=O)O[C@H]([C@H](C)C[C@@H]2CC[C@@H](O)[C@H](OC)C2)CC(=O)[C@H](C)/C=C(\C)[C@@H](O)[C@@H](OC)C(=O)[C@H](C)C[C@H](C)/C=C/C=C/C=C/1C` [Sirolimus, Rapamycin]?
Answer: G0/G1 phase cell population (HUVEC-TIE2-L914F [7]): 83.99±4.58%; cell apoptosis (HUVEC-TIE2-L914F [5]; 100 nM Ponatinib, 10 nM rapamycin or combination, 72 hours, vehicle 7.89±1.71%): 13.00±5.02%; phosphorylation of TIE2 and ABL ([6]; 100 nM Ponatinib, 10 nM rapamycin, 48 and 72 hours): no effect; inhibition at 20 µM (HUVEC-TIE2-L914F [1]): 53.9%; IC50 (HUVEC-TIE2-L914F [1]; read-out: IC50 L914F): < 30 nM; IC50 (HUVEC-TIE2-L914F [1]; read-out: IC50 in HUVEC-TIE2-L914F): < 30 nM; inhibition at 20 µM (HUVEC-TIE2-WT [2]): 30.3%; IC50 (HUVEC-TIE2-WT [2]): < 30 nM

Question: How did the “Average proliferation Inhibition rate (%) WT” value (HUVEC-TIE2-WT [3]; 20 µM) turn out when Bleomycin sulfate was run?
Answer: The value was 29.04%.

Question: What about the “Average proliferation Inhibition rate (%) L914F” value (HUVEC-TIE2-L914F [4]; 20 µM) of the same molecule?
Answer: Its value is 49.04%.

Question: Which results are given for “Dabrafenib mesylate [Dabrafenib-mesylate]”?
Answer: Average proliferation Inhibition rate (%) WT (HUVEC-TIE2-WT [3]; 20 uM): −6.26%; IC50 (HUVEC-TIE2-WT [3]; read-out: IC50 WT, 6 dilution doses from 10 μM to 30 nM): > 10 µM; Average proliferation Inhibition rate (%) L914F (HUVEC-TIE2-L914F [4]; 20 uM): 40.95%; IC50 (HUVEC-TIE2-L914F [4]; read-out: IC50 L914F, 6 dilution doses from 10 μM to 30 nM): > 10 µM

Structures can show the parent of a compound that is named as a salt. Where two headings read alike, the source gives them in different places.
